Results taken from patent US20200291118A1 (HANX BIOPHARMACEUTICS, published 2020).

Assays:
CD47 antigen [1] = target: T1, CD47 antigen (human, UniProt Q08722 partial chain, limits assumed); assay: ELISA on coated CD47
T1 construct: also called hCD47

hPD-1-his antigen = target: T2, hPD-1-his antigen (human, UniProt Q15116 partial chain, limits assumed); assay: ELISA on coated hPD-1-his
T2 construct: Coating antigen; not shown: his tag
Method: An ELISA plate was coated with hPD-1-his antigen at a concentration of 0.25 μg/ml (100 μl per well) by incubation at 4° C. overnight.
The ELISA plate coated with the hPD-1-his antigen was blocked with 1% BSA (diluted in the PBS buffer) at 37° C. for 2 hours, and then washed with 1×PBST buffer containing 1% Tween-20 for three times, with gently patting to dryness.
The absorbance of solution in each well was measured on a microplate reader under a wavelength of 450 nm.

CD47 antigen [2] = target: T1, CD47 antigen; assay: competition ELISA on coated CD47; competitor SIRPA-his tag
T1 sequence (Q08722 19-139 limits assumed): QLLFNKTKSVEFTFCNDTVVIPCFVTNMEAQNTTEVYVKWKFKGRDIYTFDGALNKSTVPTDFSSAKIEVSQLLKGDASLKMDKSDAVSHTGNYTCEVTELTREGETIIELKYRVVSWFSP
Method: After the 96-well ELISA plate was washed with the PBST buffer for five times and gently patted to dryness, HRP conjugated anti-his tag mouse monoclonal antibody as a secondary antibody in 1:750 dilution (50 μl per well) was added for incubation at 37° C. for 1 hour.

hPD-1-hIgGFc antigen = target: T3, hPD-1-hIgGFc antigen (human, UniProt Q15116 partial chain, limits assumed); assay: competition ELISA on coated hPD-1-hIgGFc; competitor PD-L1-mIgG2aFc
hPD-1-hIgGFc antigen, sequence (Q15116 25-167 limits assumed): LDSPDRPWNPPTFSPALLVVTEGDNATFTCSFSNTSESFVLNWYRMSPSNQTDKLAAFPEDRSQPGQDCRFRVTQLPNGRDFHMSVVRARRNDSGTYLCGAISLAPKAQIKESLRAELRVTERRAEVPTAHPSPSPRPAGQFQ
T3 construct: not shown: human IgG Fc
Method: A 96-well ELISA plate was coated with hPD-1-hIgGFc antigen at a concentration of 0.5 μg/ml (50 μl per well) by incubation at 4° C. overnight.

hPD-1-his antigen, sequence (Q15116 25-167 limits assumed): as above

B1: bi-specific antibody HX009-5 (bispecific antibody, human IgG4 S228P, kappa)
heavy: EVQLVQSGGGLVQPGGSLKLSCAASGFTFSSYGMSWVRQAPGKGLDWVATISGGGRDTYYPDSVKGRFTISRDNSKNNLYLQMNSLRAEDTALYYCARQKGEAWFAYWGQGTLVTVSAASTKGPSVFPLAPCSRSTSESTAALGCLVKDYFPEPVTVSWNSGALTSGVHTFPAVLQSSGLYSLSSVVTVPSSSLGTKTYTCNVDHKPSNTKVDKRV[human IgG4 Fc with S228P (EU numbers) not given here]GGGGSGGGGSERGETGPEE[about 120 residues not given here]
light: DIVLTQSPASLAVSPGQRATITCRASESVDNYGISFMNWFQQKPGQPPKLLIYAASNKGTGVPARFSGSGSGTDFTLNINPMEEEDTAMYFCQQSKEVPWTFGGGTKLEIKRTVAAPSVFIFPPSDEQLKSGTASVVCLLNNFYPREAKVQWKVDNALQSGNSQESVTEQDSKDSTYSLSSTLTLSKADYEKHKVYACEVTHQGLSSPVTKSFNRGEC
notes: Anti-PD-1 IgG (IgG4 constant region by the summary) with SIRPA segment fused to the C-terminus of each heavy chain; expressed in 293 cells; also called PD-1/CD47 bi-specific antibody; recombinant protein
EC50 (CD47 antigen [1]): 0.6 nM | EC50 (hPD-1-his antigen): 0.05 nM | IC50 (CD47 antigen [2]): 21 nM | IC50 (hPD-1-hIgGFc antigen): 1.5 nM
